PubChem BioAssay AID493208 (National Center for Advancing Translational Sciences (NCATS), 2011)
Hit rate of the full screen: of about 44,000 compounds, about 340 (0.77%) were called active. Not shown: some 5% with an inconclusive outcome. Calls come from the whole dose curve; as a rule, active = well fitted inhibition curve with a large enough effect; inconclusive = small, poorly fitted or top-dose-only effect; inactive = flat fitted curve, though single readings scatter. The list shows a part of the results.

Assay: Acumen qHTS Assay for Inhibitors of the mTORC1 Signaling Pathway in MEF (Tsc2-/-, p53-/-) Cells: Sytravon;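 note: plate controls were DMSO for no effect and rapamycin for full effect; nearly all actives have a fitted effect of over 50% in size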
Conditions: phospho-rpS6 immunofluorescence/PI, 24 h; series mostly up to 38.3 µM; activity change, negative = inhibition: at the top concentration
Outline: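 Plate MEFs (Tsc2-/-, p53-/-, empty vector) in DMEM/10% FBS; after 24 h add compound, incubate 24 h at 37 degree Celsius; fix in PFA/TX-100, block, stain phospho-rpS6 and 10 uM PI; scan at 488 nm; report % positive cells.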

Activity change, negative = inhibition, inactive:
COc1cccc(N2CCN(C(=O)c3cc4c(s3)-c3ccccc3OC4)CC2)c1 -9.47%
CC(C)(C)C(=O)NCC(c1ccc2c(c1)OCO2)N1CCOCC1 (stereo not drawn) 0.333%
O=C(CSc1nnc(-c2cccs2)o1)Oc1ccccc1Cl 0.298%
O=C(NCCc1ccc(Cl)cc1)c1ccc(CS(=O)(=O)c2ccc(Cl)cc2)o1 12.5%
Cc1cccc(C)c1NC(=O)C(NS(=O)(=O)c1cccs1)c1ccccc1 (stereo not drawn) 7.49%
O=C(Cn1ccn(-c2ccc(F)cc2)c(=O)c1=O)Nc1ccc(F)cc1 -2.78%
O=C(Cn1ncc2c3ccccc3n(Cc3cccc(Cl)c3)c2c1=O)Nc1ccc(F)cc1F -12.6%
COc1cc(CNC(=O)c2ccc3c(c2)c(C)c(C)n3Cc2cccc(C)c2)cc(OC)c1OC -7.43%
CCCCN(C)C(=O)CSc1nc2ccccc2nc1Cc1ccc(C)cc1 0%
Cc1ccc2[nH]c(=O)c3cc(C(=O)NC4CCC(C)CC4)sc3c2c1 (stereo not drawn) -2.89%
CCOc1ccc(NC(=O)c2cc(S(=O)(=O)N3CCN(c4ccccc4F)CC3)ccc2F)cc1 8.76%
COc1ccccc1CNC(=O)C(=O)NCC(c1cccs1)S(=O)(=O)c1cccs1 (stereo not drawn) -7.55%
Cc1ccc2oc(C(=O)N(Cc3sccc3C)C3CCS(=O)(=O)C3)c(C)c2c1 (stereo not drawn) 4.71%
COc1cccc(CNC(=O)c2nc(Cn3nc(C)c(Br)c3C)no2)c1 3.14%
CCOc1ccc(Nc2c(S(=O)(=O)c3ccc(C)cc3)cnc3ccc(F)cc23)cc1 -9.25%
COc1ccc(-n2c(=O)c3c4c(sc3n(C)c2=O)CN(C(C)=O)CC4)cc1 -20.9%
O=c1cc(-c2ccccc2)n2c(SCc3ccccc3Cl)nnc2[nH]1 0.192%
COc1ccccc1C(=O)Nc1nnc2n1CCS2 -2.01%
COc1cccc2c1cc1c(=O)n(CC(=O)NCc3ccco3)nc(C)n12 -4.58%
Cc1ccc(CCNC(=O)CN(c2ccc(C)cc2)S(=O)(=O)N(C)C)cc1 -4.81%
Cc1c(Cl)cccc1NC(=O)CSc1nc(=O)n(Cc2ccco2)c2c1CCC2 -6.73%
CCCCCNC(=O)C1CCC(Cn2c(=O)c3sccc3n(CC(=O)NCc3cccc(OC)c3OC)c2=O)CC1 (stereo not drawn) 13.7%
CCCCC(=O)Nc1nnc(S(=O)(=O)N(C)Cc2ccccc2)s1 7.57%
CN(C)c1ccc(CNC(=O)C2CCN(Cc3cc4ccccc4n3Cc3ccccc3)CC2)cc1 -14.3%
CCSc1nnc2c(n1)OC(c1ccc(OC)c(OC)c1)N(C(C)=O)c1ccccc1-2 (stereo not drawn) 7.03%
Cc1cccc(N(C)S(=O)(=O)c2cc3[nH]c(=O)c(=O)[nH]c3cc2C)c1 -0.789%
O=C1C(=O)N(C2CCN(C(=O)c3ccccc3F)CC2)CCN1Cc1ccc(F)cc1 -7.68%
COc1ccc(Cl)cc1NC(=O)CSc1ccc2nnc(CCNS(=O)(=O)c3ccccc3)n2n1 4.83%
Cc1ccc(-c2noc(CSc3nnc(C)n3-c3ccc(C)c(C)c3)n2)cc1 5.02%
COc1ccccc1CNC(=O)COCc1cc(-c2ccc3c(c2)OCO3)on1 -1.06%
CCOc1ccc(S(=O)(=O)Nc2ccc3oc4c(c3c2)CC(C)CC4)cc1 (stereo not drawn) -13.1%
COc1ccc(/C=C(\C#N)c2nc3ccccc3c(=O)[nH]2)cc1OC -1.39%
O=C(COc1ccc(F)cc1)OCc1cc(=O)n2nc(-c3cccs3)sc2n1 -19.9%
CC(C)CN(CC(C)C)CC(O)Cn1cc(/C=C/C(=O)c2ccccc2)c2ccccc21 (stereo not drawn) -1.71%
COc1cccc(CNS(=O)(=O)c2c(C(=O)N3CCC(C)CC3)c(C)n(C)c2C)c1 12.5%
CCc1ccc(NC(=O)C2=CC(c3cccs3)=NS(=O)(=O)N2C)cc1 -2.14%
COc1cc(NS(=O)(=O)c2c(C)nc3sc(C)c(C)n3c2=O)cc(OC)c1 -4.88%
COc1ccc(C(=O)NCc2ccc3c(c2)CCN3C(=O)c2ccc(F)cc2)cc1 0.719%
CCOc1ccccc1CNC(=O)Cn1nc(N2CCN(c3ccccc3)CC2)ccc1=O -9.88%
COc1ccc(C)c2sc(NC(=O)c3ccc(S(=O)(=O)N4CCCC4)cc3)nc12 8.97%
Cn1nnnc1SCCCNCc1cccc(OCc2ccccc2)c1 -20.6%
CC1CCN(S(=O)(=O)c2ccc3c(c2)N(CC(=O)NCC(C)c2ccccc2)C(=O)CO3)CC1 (stereo not drawn) 1.12%
O=C(NCc1ccc(Cl)cc1)NC1COc2ccccc2C1 (stereo not drawn) 0.724%
O=C(NCc1ccco1)c1ccc(Cn2c(SCc3ccccc3F)nc3cccnc32)cc1 0.0186%
CCN1CCN(c2ncnc3c2cnn3-c2cccc(C)c2)CC1 -4.78%
CN(C)c1ccc(CNC(=O)C2COc3ccccc3C2)cc1 (stereo not drawn) -3.99%
O=C(CSc1ncccc1C(=O)Oc1ccccc1Cl)Nc1ccccc1Cl 3.23%
O=C(NC1CCCCC1)c1ccc2c(c1)N(Cc1ccccc1Cl)C(=O)c1ccccc1S2 -5.17%
COc1ccc(CCNC(=O)Cn2cc(S(=O)(=O)Cc3ccc(F)cc3)c3ccccc32)cc1OC -11.1%
CCOc1ccccc1NC(=O)C1CCCN1S(=O)(=O)c1ccc2nc(-c3ccccc3)[nH]c2c1 (stereo not drawn) -19.5%
CCOc1ccc(C(=O)c2oc3ccccc3c2NC(=O)c2cc(-c3ccc(C)cc3)on2)cc1 0.289%
Cc1ccc(-c2cc(C(F)(F)F)n3ncc(-c4ccccc4)c3n2)cc1 6.29%
O=C(Nc1cccc(F)c1)c1oc2ccccc2c1NC(=O)C12CC3CC(CC(C3)C1)C2 -9.38%
O=S(=O)(c1ccccc1)c1nnn2c1nc(NCc1ccccc1)c1cc(Cl)ccc12 -0.789%
CC(C)c1ccc(NC(=O)CCS(=O)(=O)c2ccc3c(c2)CC(=O)N3C)cc1 -3.69%
Cc1nc2nc(C)c(CCC(=O)NCc3ccccc3)c(C)n2n1 -0.399%
CCOc1ccc2ncc3c(-c4cccc(OC)c4)nn(-c4ccccc4)c3c2c1 -7.93%
Cc1ccc2occ(CC(=O)Nc3ccc(S(=O)(=O)N4CCC(C)CC4)cc3)c2c1 -27.2%
COc1cccc(Cc2nc3ccccc3nc2SCC(=O)Nc2cc(OC)ccc2OC)c1 3.19%
CCOCCn1ccc2c(OCC(=O)Nc3cccc(F)c3)cccc2c1=O -12%
CCOc1cc(-c2ccc(OC(=O)c3ccccc3)c(OC)c2)cc(=O)c2c(C)oc(C)c12 -26.1%
CCOc1ccccc1CNCCSc1nnnn1C 1.9%
O=c1c2sc3ccccc3c2n(Cc2ccccc2)c(=O)n1CCc1ccccc1 0.14%
